According to the supplement of paper PMC8728848:
The list shows a part of the results.

Experiments:
Experiment in all cases: glycan array binding signal (z-score within array); higher = stronger binding
Conditions in all cases: glycan notation: IUPAC condensed, linker removed
[1] = molecular target: Fuc(a1-2)Gal
In short: (§1)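 Glycan array binding is given as a within-array Z-score, which can be read as non-binding when negative. The arrays, 3228 of them, came from the Consortium for Functional Glycomics database and were retained only where the protein sequence was available. Z-scores were averaged across arrays of the same protein sequence at different concentrations or buffers and across linkers.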

[2] = molecular target: Fuc(a1-2)Gal(b1-3)GalNAc
In short: as §1

[3] = molecular target: Fuc(a1-2)Gal(b1-3)GalNAc(b1-3)Gal
In short: as §1

[4] = molecular target: Fuc(a1-2)Gal(b1-3)GalNAc(b1-3)Gal(a1-4)Gal(b1-4)Glc
In short: as §1

[5] = molecular target: Fuc(a1-2)Gal(b1-3)GalNAc(b1-4)[Neu5Ac(a2-3)]Gal(b1-4)Glc
In short: as §1

[6] = molecular target: Fuc(a1-2)Gal(b1-3)GlcNAc
In short: as §1

[7] = molecular target: Fuc(a1-2)Gal(b1-3)GlcNAc(b1-3)Gal(b1-4)Glc
In short: as §1

[8] = molecular target: Fuc(a1-2)Gal(b1-3)[Fuc(a1-4)]GlcNAc
In short: as §1

[9] = molecular target: Fuc(a1-2)Gal(b1-4)Glc
In short: as §1

[10] = molecular target: Fuc(a1-2)Gal(b1-4)Glc6S
In short: as §1

[11] = molecular target: Fuc(a1-2)Gal(b1-4)GlcNAc
In short: as §1

[12] = molecular target: Fuc(a1-2)Gal(b1-4)GlcNAc(b1-3)Gal(b1-4)GlcNAc
In short: as §1

[13] = molecular target: Fuc(a1-2)Gal(b1-4)GlcNAc(b1-3)Gal(b1-4)GlcNAc(b1-3)Gal(b1-4)GlcNAc
In short: as §1

[14] = molecular target: Fuc(a1-2)Gal(b1-4)GlcNAc6S
In short: as §1

[15] = molecular target: Fuc(a1-2)Gal(b1-4)[Fuc(a1-3)]GlcNAc
In short: as §1

[16] = molecular target: Fuc(a1-2)Gal(b1-4)[Fuc(a1-3)]GlcNAc(b1-3)Gal(b1-4)[Fuc(a1-3)]GlcNAc
In short: as §1

[17] = molecular target: Fuc(a1-2)Gal(b1-4)[Fuc(a1-3)]GlcNAc(b1-3)Gal(b1-4)[Fuc(a1-3)]GlcNAc(b1-3)Gal(b1-4)[Fuc(a1-3)]GlcNAc
In short: as §1

[18] = molecular target: Fuc(a1-2)Gal6S(b1-4)Glc
In short: as §1

[19] = molecular target: Fuc(a1-2)Gal6S(b1-4)Glc6S
In short: as §1

[20] = molecular target: Fuc(a1-2)Gal6S(b1-4)GlcNAc
In short: as §1

[21] = molecular target: Fuc(a1-2)[Gal(a1-3)]Gal
In short: as §1

[22] = molecular target: Fuc(a1-2)[Gal(a1-3)]Gal(b1-3)GlcNAc
In short: as §1

[23] = molecular target: Fuc(a1-2)[Gal(a1-3)]Gal(b1-4)Glc
In short: as §1

[24] = molecular target: Fuc(a1-2)[Gal(a1-3)]Gal(b1-4)GlcNAc
In short: as §1

[25] = molecular target: Fuc(a1-2)[Gal(a1-3)]Gal(b1-4)[Fuc(a1-3)]GlcNAc
In short: as §1

[26] = molecular target: Fuc(a1-2)[Gal(a1-4)]Gal(b1-4)GlcNAc
In short: as §1

[27] = molecular target: Fuc(a1-2)[GalNAc(a1-3)]Gal
In short: as §1

[28] = molecular target: Fuc(a1-2)[GalNAc(a1-3)]Gal(b1-3)GlcNAc
In short: as §1

[29] = molecular target: Fuc(a1-2)[GalNAc(a1-3)]Gal(b1-4)Glc
In short: as §1

[30] = molecular target: Fuc(a1-2)[GalNAc(a1-3)]Gal(b1-4)GlcNAc
In short: as §1

B1: LYVE-1 (Homo sapiens), Q9Y5Y7 (protein)
chain: MARCFSLVLLLTSIWTTRLLVQGSLRAEELSIQVSCRIMGITLVSKKANQQLNFTEAKEACRLLGLSLAGKDQVETALKASFETCSYGWVGDGFVVISRISPNPKCGKNGVGVLIWKVPVSRQFAAYCYNSSDTWTNSCIPEIITTKDPIFNTQTATQTTEFIVSDSTYSVASPYSTIPAPTTTPPAPASTSIPRRKKLICVTEVFMETSTMSTETEPFVENKAAFKNEAAGDPEVKFNWYVDGVEVHNAKPREEQYNSTYRVVSLVTVLHQDWLNGKEYKCKVSNKALPAPIEKTISKAKGQPREPQVYTLPPSRDELTKNQVSLTCLVKGFYPSDIAVEWESNGQPENNYKTTPPVLDSDGSFFLYSKLTVDKSRWQQGNVFSCSVMHEALHNHYTQRSLSLSPGK
glycan array binding signal (z-score) [1]: -0.222
glycan array binding signal (z-score) [2]: -0.468
glycan array binding signal (z-score) [3]: 0.63
glycan array binding signal (z-score) [4]: -0.449
glycan array binding signal (z-score) [5]: -0.605
glycan array binding signal (z-score) [6]: -0.053
glycan array binding signal (z-score) [7]: -0.024
glycan array binding signal (z-score) [8]: -0.412
glycan array binding signal (z-score) [9]: 0.176
glycan array binding signal (z-score) [10]: -0.042
glycan array binding signal (z-score) [11]: -0.346
glycan array binding signal (z-score) [12]: 0.297
glycan array binding signal (z-score) [13]: 0.267
glycan array binding signal (z-score) [14]: -0.475
glycan array binding signal (z-score) [15]: 0.451
glycan array binding signal (z-score) [16]: 0.235
glycan array binding signal (z-score) [17]: 0.299
glycan array binding signal (z-score) [18]: -0.807
glycan array binding signal (z-score) [19]: 0.656
glycan array binding signal (z-score) [20]: -0.046
glycan array binding signal (z-score) [21]: 0.242
glycan array binding signal (z-score) [22]: -0.277
glycan array binding signal (z-score) [23]: -1.05
glycan array binding signal (z-score) [24]: -0.177
glycan array binding signal (z-score) [25]: -0.426
glycan array binding signal (z-score) [26]: -0.596
glycan array binding signal (z-score) [27]: 0.107
glycan array binding signal (z-score) [28]: -0.138
glycan array binding signal (z-score) [29]: -0.767
glycan array binding signal (z-score) [30]: 0.026
